The other results are listed elsewhere or left out.
Key:
Test in all cases: glycan array binding signal (z-score within array); higher = stronger binding
Conditions in all cases: glycan notation: IUPAC condensed, linker removed
[1] = molecular target: Gal(b1-3)Gal
Procedure, shortened: (§1)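 Glycan array binding is given as a within-array Z-score, which can be read as non-binding when negative. The arrays, 3228 of them, came from the Consortium for Functional Glycomics database and were retained only where the protein sequence was available. Z-scores were averaged across arrays of the same protein sequence at different concentrations or buffers and across linkers.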

[2] = molecular target: Gal(b1-3)Gal(b1-4)GlcNAc
Procedure, shortened: as §1

[3] = molecular target: Gal(b1-3)GalNAc
Procedure, shortened: as §1

[4] = molecular target: Gal(b1-3)GalNAc(a1-3)[Fuc(a1-2)]Gal(b1-4)Glc
Procedure, shortened: as §1

[5] = molecular target: Gal(b1-3)GalNAc(a1-3)[Fuc(a1-2)]Gal(b1-4)GlcNAc
Procedure, shortened: as §1

[6] = molecular target: Gal(b1-3)GalNAc(b1-3)Gal
Procedure, shortened: as §1

[7] = molecular target: Gal(b1-3)GalNAc(b1-3)Gal(a1-4)Gal(b1-4)Glc
Procedure, shortened: as §1

[8] = molecular target: Gal(b1-3)GalNAc(b1-3)Gal(b1-4)Glc
Procedure, shortened: as §1

[9] = molecular target: Gal(b1-3)GalNAc(b1-3)Gal(b1-4)GlcNAc
Procedure, shortened: as §1

[10] = molecular target: Gal(b1-3)GalNAc(b1-4)Gal(b1-4)Glc
Procedure, shortened: as §1

[11] = molecular target: Gal(b1-3)GalNAc(b1-4)[Neu5Ac(a2-3)]Gal(b1-4)Glc
Procedure, shortened: as §1

[12] = molecular target: Gal(b1-3)GlcNAc
Procedure, shortened: as §1

[13] = molecular target: Gal(b1-3)GlcNAc(a1-3)Gal(b1-4)GlcNAc
Procedure, shortened: as §1

[14] = molecular target: Gal(b1-3)GlcNAc(a1-6)Gal(b1-4)GlcNAc
Procedure, shortened: as §1

[15] = molecular target: Gal(b1-3)GlcNAc(b1-2)Man
Procedure, shortened: as §1

[16] = molecular target: Gal(b1-3)GlcNAc(b1-2)Man(a1-3)[Gal(b1-3)GlcNAc(b1-2)Man(a1-6)]Man(b1-4)GlcNAc(b1-4)GlcNAc
Procedure, shortened: as §1

[17] = molecular target: Gal(b1-3)GlcNAc(b1-2)Man(a1-3)[Gal(b1-3)GlcNAc(b1-2)Man(a1-6)]Man(b1-4)GlcNAc(b1-4)[Fuc(a1-6)]GlcNAc
Procedure, shortened: as §1

[18] = molecular target: Gal(b1-3)GlcNAc(b1-2)Man(a1-3)[GlcNAc(b1-4)][Gal(b1-3)GlcNAc(b1-2)Man(a1-6)]Man(b1-4)GlcNAc(b1-4)GlcNAc
Procedure, shortened: as §1

[19] = molecular target: Gal(b1-3)GlcNAc(b1-2)[Gal(b1-3)GlcNAc(b1-6)]Man(a1-6)[Gal(b1-3)GlcNAc(b1-2)Man(a1-3)]Man(b1-4)GlcNAc(b1-4)GlcNAc
Procedure, shortened: as §1

[20] = molecular target: Gal(b1-3)GlcNAc(b1-3)Gal(b1-3)GlcNAc
Procedure, shortened: as §1

[21] = molecular target: Gal(b1-3)GlcNAc(b1-3)Gal(b1-4)Glc
Procedure, shortened: as §1

[22] = molecular target: Gal(b1-3)GlcNAc(b1-3)Gal(b1-4)GlcNAc
Procedure, shortened: as §1

[23] = molecular target: Gal(b1-3)GlcNAc(b1-3)Gal(b1-4)GlcNAc(b1-2)Man(a1-3)[Gal(b1-3)GlcNAc(b1-3)Gal(b1-4)GlcNAc(b1-2)Man(a1-6)]Man(b1-4)GlcNAc(b1-4)GlcNAc
Procedure, shortened: as §1

[24] = molecular target: Gal(b1-3)GlcNAc(b1-3)Gal(b1-4)GlcNAc(b1-2)[Gal(b1-3)GlcNAc(b1-3)Gal(b1-4)GlcNAc(b1-6)]Man(a1-6)[Gal(b1-3)GlcNAc(b1-3)Gal(b1-4)GlcNAc(b1-2)Man(a1-3)]Man(b1-4)GlcNAc(b1-4)[Fuc(a1-6)]GlcNAc
Procedure, shortened: as §1

[25] = molecular target: Gal(b1-3)GlcNAc(b1-3)Gal(b1-4)GlcNAc(b1-3)Gal(b1-4)GlcNAc(b1-2)[Gal(b1-3)GlcNAc(b1-3)Gal(b1-4)GlcNAc(b1-3)Gal(b1-4)GlcNAc(b1-6)]Man(a1-6)[Gal(b1-3)GlcNAc(b1-3)Gal(b1-4)GlcNAc(b1-3)Gal(b1-4)GlcNAc(b1-2)Man(a1-3)]Man(b1-4)GlcNAc(b1-4)[Fuc(a1-6)]GlcNAc
Procedure, shortened: as §1

[26] = molecular target: Gal(b1-3)GlcNAc(b1-3)Gal(b1-4)GlcNAc(b1-6)[Gal(b1-3)GlcNAc(b1-3)]Gal(b1-4)Glc
Procedure, shortened: as §1

[27] = molecular target: Gal(b1-3)GlcNAc(b1-3)Gal(b1-4)[Fuc(a1-3)]GlcNAc
Procedure, shortened: as §1

[28] = molecular target: Gal(b1-3)GlcNAc(b1-3)Gal(b1-4)[Fuc(a1-3)]GlcNAc(b1-6)[Gal(b1-3)GlcNAc(b1-3)]Gal(b1-4)Glc
Procedure, shortened: as §1

[29] = molecular target: Gal(b1-3)GlcNAc(b1-3)GalNAc
Procedure, shortened: as §1

[30] = molecular target: Gal(b1-3)GlcNAc(b1-6)Gal(b1-4)GlcNAc
Procedure, shortened: as §1

[31] = molecular target: Gal(b1-3)GlcNAc(b1-6)GalNAc
Procedure, shortened: as §1

[32] = molecular target: Gal(b1-3)GlcNAc(b1-6)[Gal(b1-3)]GalNAc
Procedure, shortened: as §1

[33] = molecular target: Gal(b1-3)GlcNAc6S
Procedure, shortened: as §1

[34] = molecular target: Gal(b1-3)[Fuc(a1-4)]GlcNAc
Procedure, shortened: as §1

[35] = molecular target: Gal(b1-3)[Fuc(a1-4)]GlcNAc(b1-2)Man
Procedure, shortened: as §1

[36] = molecular target: Gal(b1-3)[Fuc(a1-4)]GlcNAc(b1-2)Man(a1-3)[Gal(b1-3)[Fuc(a1-4)]GlcNAc(b1-2)Man(a1-6)]Man(b1-4)GlcNAc(b1-4)[Fuc(a1-6)]GlcNAc
Procedure, shortened: as §1

[37] = molecular target: Gal(b1-3)[Fuc(a1-4)]GlcNAc(b1-3)Gal(b1-3)[Fuc(a1-4)]GlcNAc
Procedure, shortened: as §1

B1: Epa12 (Candida glabrata) (protein)
chain: MGSSHHHHHHSSGLVPRGSHMLEPDNSLQIFDSFLSNPSKYPLGCSPKITNPKKGLSMELYSYPYRKKGSHPCWDPAYLDPNFPRVGYKKNKLIARVDGVSGDINFNFHPKRQCTPIADYLPPNFNYNEPITTTNFTMLLYGYFKPKVTGLHTFDISADDLLFMNFGAGNAFDCCRRDSTADTFGNYVAWAIWGRRIVRNKLTVRLDKGIYYPLRLFFNNRDYYGQMRLTFKTEHGSERITDFSDYFFSVDDTSEGCPGLITYESECADVKSSTVLETDYITIQAEKE
- glycan array binding signal (z-score) [1]: 0.351
- glycan array binding signal (z-score) [2]: 3.49
- glycan array binding signal (z-score) [3]: 0.135
- glycan array binding signal (z-score) [4]: -0.001
- glycan array binding signal (z-score) [5]: -0.255
- glycan array binding signal (z-score) [6]: 0.01
- glycan array binding signal (z-score) [7]: 0.144
- glycan array binding signal (z-score) [8]: 1.05
- glycan array binding signal (z-score) [9]: -0.297
- glycan array binding signal (z-score) [10]: 0.12
- glycan array binding signal (z-score) [11]: -0.313
- glycan array binding signal (z-score) [12]: 0.617
- glycan array binding signal (z-score) [13]: -0.242
- glycan array binding signal (z-score) [14]: 1.11
- glycan array binding signal (z-score) [15]: 1.01
- glycan array binding signal (z-score) [16]: 0.231
- glycan array binding signal (z-score) [17]: -0.148
- glycan array binding signal (z-score) [18]: -0.174
- glycan array binding signal (z-score) [19]: -0.008
- glycan array binding signal (z-score) [20]: 0.285
- glycan array binding signal (z-score) [21]: -0.257
- glycan array binding signal (z-score) [22]: -0.208
- glycan array binding signal (z-score) [23]: -0.34
- glycan array binding signal (z-score) [24]: -0.042
- glycan array binding signal (z-score) [25]: -0.066
- glycan array binding signal (z-score) [26]: 0.45
- glycan array binding signal (z-score) [27]: -0.023
- glycan array binding signal (z-score) [28]: -0.03
- glycan array binding signal (z-score) [29]: 1.4
- glycan array binding signal (z-score) [30]: 2.3
- glycan array binding signal (z-score) [31]: -0.093
- glycan array binding signal (z-score) [32]: 0.005
- glycan array binding signal (z-score) [33]: 0.978
- glycan array binding signal (z-score) [34]: -0.176
- glycan array binding signal (z-score) [35]: -0.081
- glycan array binding signal (z-score) [36]: -0.215
- glycan array binding signal (z-score) [37]: -0.441

Reference: the supplement of paper PMC8728848
